Sequences and labels used below:
B1: PhoQ; a variant is named by its letters at X, in order, P23837 (parent)
chain: MKKLLRLFFPLSLRVRFLLATAAVVLVLSLAYGMVALIGYSVSFDKTTFRLLRGESNLFYTLAKWENNKLHVELPENIDKQSPTMTLIYDENGQLLWAQRDVPWLMKMIQPDWLKSNGFHEIEADVNDTSLLLSGDHSIQQQLQEVREDDDDAEMTHSVAVNVYPATSRMPKLTIVVVDTIPVELKSSYMVWSWFIYVLSANLLLVIPLLWVAAWWSLRPIEALAKEVRELEEHNRELLNPATTRELTSLVRNLNRLLKSERERYDKYRTTLTDLTHSLKTPLXXLQXXLRSLRSEKMSVSDAEPVMLEQISRISQQIGYYLHRASMRGGTLLSRELHPVAPLLDNLTSALNKVYQRKGVNISLDISPEISFVGEQNDFVEVMGNVLDNACKYCLEFVEISARQTDEHLYIVVEDDGPGIPLSKREVIFDRGQRVDTLRPGQGVGLAVAREITEQYEGKIVAGESMLGGARMEVIFGRQHSAPKDE

The other results are listed elsewhere or left out.

Variants of B1 are the subject of the assay. Put plainly: enrichment ratio after two sorts for PhoP signalling (ratio (wild type AVST 3.29)); higher = more functional. To be noted: with PhoP (E. coli).
EEAS: the enrichment ratio is not above 0.25.

For the variant SEGG, the enrichment ratio was 9.05.

On to KHWA, for which the enrichment ratio was not above 0.25.

As to SFWV, the enrichment ratio was not above 0.25.

With GCMC, the enrichment ratio is not above 0.25.

Take FEER: the enrichment ratio was not above 0.25.

SSWW: the enrichment ratio was not above 0.25.

Consider LQMN, for which the enrichment ratio is not above 0.25.

On to GTMC, for which the enrichment ratio is not above 0.25.

For YQNM, the enrichment ratio was not above 0.25.

For the variant LPMN, the enrichment ratio is not above 0.25.

QVFQ: the enrichment ratio is not above 0.25.

On to HKRW, for which the enrichment ratio was not above 0.25.

On to LDVR, for which the enrichment ratio is not above 0.25.

As for VMDT, the enrichment ratio was not above 0.25.

Turning to GQYY, the enrichment ratio was not above 0.25.

Consider GAAP, for which the enrichment ratio was not above 0.25.

Take WNQE: the enrichment ratio was not above 0.25.

Consider MPWA, for which the enrichment ratio is not above 0.25.

Take MCVV: the enrichment ratio was not above 0.25.

As for SWSY, the enrichment ratio is not above 0.25.

For FVVQ, the enrichment ratio is not above 0.25.

As for GMAF, the enrichment ratio came out at 2.59.

In the case of SCVY, the enrichment ratio was determined as 4.83.

With TMTF, the enrichment ratio amounted to 11.5.

For the variant HPQT, the enrichment ratio was not above 0.25.

On to RSFF, for which the enrichment ratio is not above 0.25.

As to VFHA, the enrichment ratio is not above 0.25.

For the variant IACT, the enrichment ratio is not above 0.25.

Turning to FCWF, the enrichment ratio is not above 0.25.

Regarding TNGR, the enrichment ratio is not above 0.25.

Consider APDS, for which the enrichment ratio was not above 0.25.

IPQW: the enrichment ratio is not above 0.25.

GLNV: the enrichment ratio is not above 0.25.

FLEW: the enrichment ratio is not above 0.25.

For the variant YAKA, the enrichment ratio is not above 0.25.

In the case of SGMR, the enrichment ratio is not above 0.25.

Regarding LPYQ, the enrichment ratio is not above 0.25.

As to KQRL, the enrichment ratio is not above 0.25.

With TLDW, the enrichment ratio is not above 0.25.

Consider LGMI, for which the enrichment ratio amounted to 12.6.

Take PVAC: the enrichment ratio was not above 0.25.

Regarding LNWV, the enrichment ratio was not above 0.25.

AVVK: the enrichment ratio was determined as 0.922.

For the variant DYSD, the enrichment ratio is not above 0.25.

STYQ: the enrichment ratio was not above 0.25.

Regarding AEPF, the enrichment ratio is not above 0.25.

Consider IKFL, for which the enrichment ratio is not above 0.25.

For HIRY, the enrichment ratio is not above 0.25.

Turning to ISLF, the enrichment ratio was not above 0.25.

Consider EQFY, for which the enrichment ratio is not above 0.25.

In the case of FEDD, the enrichment ratio is not above 0.25.

Regarding ENRY, the enrichment ratio is not above 0.25.

With NWFL, the enrichment ratio is not above 0.25.

In the case of VYEM, the enrichment ratio is not above 0.25.

As to WESE, the enrichment ratio is not above 0.25.

On to KRYS, for which the enrichment ratio is not above 0.25.

Consider TFMQ, for which the enrichment ratio was not above 0.25.

For the variant LLGT, the enrichment ratio was not above 0.25.

PQAL: the enrichment ratio was not above 0.25.

Take EVMF: the enrichment ratio is not above 0.25.

Regarding YMGH, the enrichment ratio is not above 0.25.

Turning to VIPY, the enrichment ratio was not above 0.25.

For PGWM, the enrichment ratio is not above 0.25.

Turning to FFPY, the enrichment ratio was not above 0.25.

As to FNWY, the enrichment ratio is not above 0.25.

For EEFG, the enrichment ratio is not above 0.25.

In the case of IADC, the enrichment ratio was not above 0.25.

Regarding ADTD, the enrichment ratio was not above 0.25.

In the case of LIPH, the enrichment ratio was not above 0.25.

Turning to EPSF, the enrichment ratio is not above 0.25.

Consider PEQF, for which the enrichment ratio is not above 0.25.

For HRQI, the enrichment ratio was not above 0.25.

Turning to YSYE, the enrichment ratio was not above 0.25.

In the case of QHGC, the enrichment ratio is not above 0.25.

In the case of YLQY, the enrichment ratio was not above 0.25.

With IMGC, the enrichment ratio is not above 0.25.

As to SENR, the enrichment ratio is 0.957.

For the variant EHDL, the enrichment ratio is not above 0.25.

Turning to HINR, the enrichment ratio was not above 0.25.

In the case of YHVE, the enrichment ratio was not above 0.25.

LEYF: the enrichment ratio was 1.59.

Turning to IELI, the enrichment ratio was found to be 0.368.

ERPE: the enrichment ratio is not above 0.25.

Regarding NLRY, the enrichment ratio is not above 0.25.

On to TMRT, for which the enrichment ratio is not above 0.25.

For the variant RIQL, the enrichment ratio is not above 0.25.

Turning to TTMW, the enrichment ratio was not above 0.25.

For IHHW, the enrichment ratio was not above 0.25.

IEMV: the enrichment ratio stood at 3.63.

As to VGEK, the enrichment ratio is not above 0.25.

Consider FCYN, for which the enrichment ratio is not above 0.25.

As to DLKA, the enrichment ratio was not above 0.25.

HNHF: the enrichment ratio is not above 0.25.

As for HGPK, the enrichment ratio is not above 0.25.

For VKMT, the enrichment ratio is not above 0.25.

On to VFWR, for which the enrichment ratio was not above 0.25.

NKRH: the enrichment ratio is not above 0.25.

With QKLG, the enrichment ratio is not above 0.25.

Take AEWL: the enrichment ratio came to 4.85.

Turning to MSFH, the enrichment ratio came out at 4.47.

Consider ATRE, for which the enrichment ratio was not above 0.25.

As for EEAL, the enrichment ratio was not above 0.25.

Take AAIN: the enrichment ratio is not above 0.25.

Regarding LLVK, the enrichment ratio is not above 0.25.

Turning to HDQA, the enrichment ratio was not above 0.25.

With AVLT, the enrichment ratio turned out to be 2.4.

As for PGYH, the enrichment ratio was not above 0.25.

Consider VHCR, for which the enrichment ratio is not above 0.25.

Regarding PSTQ, the enrichment ratio was not above 0.25.

With REDI, the enrichment ratio is not above 0.25.

Turning to RFSR, the enrichment ratio was not above 0.25.

YCRE: the enrichment ratio is not above 0.25.

Regarding NMMA, the enrichment ratio is not above 0.25.

As to NRYL, the enrichment ratio was not above 0.25.

Take YMHI: the enrichment ratio was not above 0.25.

For the variant LTQN, the enrichment ratio is not above 0.25.

Regarding YLGL, the enrichment ratio is not above 0.25.

VDWI: the enrichment ratio was not above 0.25.

As to EVYL, the enrichment ratio was not above 0.25.

For IVCF, the enrichment ratio is not above 0.25.

In the case of DMAC, the enrichment ratio was not above 0.25.

As to FRSG, the enrichment ratio is not above 0.25.

As to FRVA, the enrichment ratio was not above 0.25.

Consider PLCR, for which the enrichment ratio was not above 0.25.

Turning to NRCD, the enrichment ratio was not above 0.25.

DRGM: the enrichment ratio was not above 0.25.

Consider MESM, for which the enrichment ratio is 19.

In the case of AALL, the enrichment ratio amounted to 14.9.

Turning to MKGM, the enrichment ratio is not above 0.25.

As to YNMG, the enrichment ratio is not above 0.25.

Take GEYT: the enrichment ratio is 0.289.

Consider LIYC, for which the enrichment ratio was not above 0.25.

Consider PARF, for which the enrichment ratio is not above 0.25.

For AHVH, the enrichment ratio was not above 0.25.

Regarding INTG, the enrichment ratio is not above 0.25.

On to TRAQ, for which the enrichment ratio was not above 0.25.

With EHYR, the enrichment ratio is not above 0.25.

On to LHWH, for which the enrichment ratio is not above 0.25.

For CYFS, the enrichment ratio is not above 0.25.

Take PWTR: the enrichment ratio was not above 0.25.

With ARLM, the enrichment ratio came out at 6.76.

With YYDG, the enrichment ratio is not above 0.25.

Regarding EDAL, the enrichment ratio was not above 0.25.

For WEPC, the enrichment ratio was not above 0.25.

ISRF: the enrichment ratio was not above 0.25.

For the variant PSSW, the enrichment ratio is not above 0.25.

Take GPIF: the enrichment ratio was not above 0.25.

With WTGG, the enrichment ratio was not above 0.25.

In the case of TYNA, the enrichment ratio was not above 0.25.

Regarding WTMF, the enrichment ratio is not above 0.25.

With TTGY, the enrichment ratio stood at 20.5.

Consider THEQ, for which the enrichment ratio is not above 0.25.

Values taken from a collection of fitness landscapes (doi:10.1126/science.1257360).
